# From article PMC4336329 (PLoS ONE, 2015)
# The campaign covered roughly 310,000 compounds. About 2,200 (0.71%) showed an effect of 50% or more. Effects have a minus sign here. This is one part of the list.
# Target: human ether-à-go-go-related gene (hERG) potassium channel (human, UniProt Q12809)
# Assay: primary screen, population patch clamp on CHO cells stably expressing hERG
# human ether-à-go-go-related gene (hERG) potassium channel, sequence (Q12809 whole entry, looked up): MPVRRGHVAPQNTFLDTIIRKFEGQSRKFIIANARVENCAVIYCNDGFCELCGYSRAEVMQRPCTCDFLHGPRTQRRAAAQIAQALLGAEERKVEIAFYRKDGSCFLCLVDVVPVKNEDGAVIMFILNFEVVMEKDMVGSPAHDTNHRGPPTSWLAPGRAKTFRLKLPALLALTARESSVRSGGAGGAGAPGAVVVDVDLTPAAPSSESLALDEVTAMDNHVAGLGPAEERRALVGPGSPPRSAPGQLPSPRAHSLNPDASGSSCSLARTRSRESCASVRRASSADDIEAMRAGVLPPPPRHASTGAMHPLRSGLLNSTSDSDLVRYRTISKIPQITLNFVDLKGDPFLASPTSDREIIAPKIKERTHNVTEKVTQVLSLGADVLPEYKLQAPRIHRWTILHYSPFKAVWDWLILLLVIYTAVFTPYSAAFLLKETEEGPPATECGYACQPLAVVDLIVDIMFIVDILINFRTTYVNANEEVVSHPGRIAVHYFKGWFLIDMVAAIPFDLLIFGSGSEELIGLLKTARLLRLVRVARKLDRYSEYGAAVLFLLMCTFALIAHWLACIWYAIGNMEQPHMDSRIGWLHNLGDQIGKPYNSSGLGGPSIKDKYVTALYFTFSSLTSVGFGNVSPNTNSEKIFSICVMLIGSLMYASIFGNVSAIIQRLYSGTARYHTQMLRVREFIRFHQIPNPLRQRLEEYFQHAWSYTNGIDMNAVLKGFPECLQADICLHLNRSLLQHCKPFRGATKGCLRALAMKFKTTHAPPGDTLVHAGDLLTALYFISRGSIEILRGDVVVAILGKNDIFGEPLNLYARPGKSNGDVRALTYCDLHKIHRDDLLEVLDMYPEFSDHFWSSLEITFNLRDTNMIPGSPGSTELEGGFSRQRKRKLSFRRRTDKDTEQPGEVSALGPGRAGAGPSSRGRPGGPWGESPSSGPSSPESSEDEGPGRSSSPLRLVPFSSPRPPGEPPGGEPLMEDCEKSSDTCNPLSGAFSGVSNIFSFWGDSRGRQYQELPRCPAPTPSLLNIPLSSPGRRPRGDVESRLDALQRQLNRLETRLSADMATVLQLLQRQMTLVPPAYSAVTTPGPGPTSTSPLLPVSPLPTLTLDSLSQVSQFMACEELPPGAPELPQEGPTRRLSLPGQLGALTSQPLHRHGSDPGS
row,SMILES,"hERG current change (%, negative = inhibition) at 1uM [%]"
1,O=C(N/C(=N\O)c1ccccc1)Nc1ccc(Cl)cc1,-8.86
2,CC1=C(C(=O)N2CCOCC2)C(c2ccc(O)cc2)NC(=S)N1 (stereo not shown),6.33
3,CCOC(=O)C1(CCOc2ccccc2)CCN(Cc2ccc(C#CCCO)cc2)CC1,0.161
4,CCOC(=O)NNC(=O)c1[nH]c2ccc(Br)cc2c1-c1ccccc1,10.1
5,O=C(CSc1nnc(Nc2ccccc2)s1)NCC1CCCO1 (stereo not shown),14.7
6,COC(=O)CCCNC(=O)c1ccc(OS(=O)(=O)c2cc([N+](=O)[O-])ccc2C)cc1,5.57
7,COc1ccc(/C(C)=N/NC(=O)c2ccc3nc[nH]c3c2)cc1,13.1
8,CCCCNc1c(-c2cccc(-c3cc(C(C)=O)cs3)c2)nc2cc(C)ccn12.O=C(O)C(F)(F)F,9.48
9,COc1ccc(C(=O)/C=C/c2cccs2)c(OC(=O)N2CCOCC2)c1,13.4
10,Cc1cc(C)c2c(c1)/C(=C/C(=O)c1ccc(Br)s1)C(=O)N2,21
11,CC(C)(C)OC(=O)N[C@@H](Cc1ccccc1)C(=O)N1CCC(C(=O)N[C@@H](Cc2c[nH]c3ccccc23)C(=O)O)CC1,15
12,CN1CCC(=O)N(CCSc2ccc(Br)cc2)CC1,-0.46
13,CCC(CC)NC(=O)CCCSc1nc2ccccc2[nH]1,9.36
14,Cc1cc(OCC(O)CN(CCO)CCO)ccc1Cl.Cl (stereo not shown),7.36
15,Cc1ccccc1NC(=S)NCC(c1cccnc1)N1CCOCC1 (stereo not shown),11.4
16,CCOC(=O)c1ccc(CNC(=O)C2CCCCC2C(=O)OCC(F)(F)F)o1 (stereo not shown),7.18
17,COc1ccccc1C(=O)COC(=O)CNS(=O)(=O)c1ccc(C)cc1,4.92
18,COC(=O)[C@@H](Cc1c[nH]c2ccccc12)NC(=O)C1CCCN(S(=O)(=O)c2ccc(C)cc2)C1 (stereo partly shown),4.77
19,Cl.Cn1c(SCc2ccccc2)nnc1C1CCCNC1 (stereo not shown),12.2
20,CCOC(=O)N1CCN(C(=O)c2cccc(F)c2)CC1,1.87
21,CCOC(=O)CSc1n[nH]c(NC(=O)c2cccc(C(F)(F)F)c2)n1,-6.41
22,CC1(C)C2CCC1(CS(=O)(=O)Nc1ccccc1)C(=O)C2 (stereo not shown),5.72
23,CC(C(=O)Nc1ccc(Cl)cc1Cl)N1CC=C(c2ccccc2)CC1 (stereo not shown),9.25
24,N#Cc1cnn(-c2ccc(F)cc2)c1N,17.6
25,CCCCNC(=O)c1cc2cc(CC)ccc2[nH]1,8.01
